# Among all 350,000 compounds or so, about 9,900 (2.8%) were called active. The shares of active, inactive and inconclusive entries below differ from those in the screen. Calls come from the whole dose curve; as a rule, active = well fitted activation curve with a large enough effect; inconclusive = small, poorly fitted or top-dose-only effect; inactive = no such curve, though single readings can be large or run the other way. No potency is given beside an inconclusive call; the fits are too rough.
# Experiment: A quantitative high throughput screen for small molecules that induce DNA re-replication in MCF 10a normal breast cells. Note: nearly all actives have a fitted effect of over 50% in size.
# Conditions: MCF 10A DNA re-replication, Hoechst nuclear intensity, 48 h; series mostly up to 46.1 µM
# Potency is the fitted concentration of half-maximal effect; tags give direction and shape of the fitted curve.
row,SMILES,Potency
1,CC(=O)[C@]1(O)Cc2c(O)c3c(c(O)c2[C@@H](O[C@H]2C[C@H](N)[C@H](O)[C@H](C)O2)C1)C(=O)c1c(O)cccc1C3=O,inactive
2,COc1ccc2cc(C(=O)N3CCCCCC3)sc(=O)c2c1OC,"inconclusive [activator, partial curve, poor fit]"
3,Cc1cc(C)c([N+](=O)[O-])cc1-c1ccc(/C=N/c2c(-c3ccco3)nc3ccccn23)o1,"inconclusive [activator, full curve, poor fit]"
4,COc1ccc(CCNC(=O)c2ccc3ccccc3n2)cc1OC,inactive
5,COc1cnc(SCc2ccc(Cl)cc2)nc1Cl,"inconclusive [activator, single point]"
6,FC(F)(F)c1cccc(NC(=S)N(CCCN2CCCC2)Cc2cccn2Cc2ccc(Cl)cc2)c1,"inconclusive [activator, single point]"
7,COCCn1c(-c2ccc(-c3ccccc3Cl)o2)nc2c1c(=O)[nH]c(=O)n2CC(C)C,active: 11.6 µM
8,COc1ccc2c(COC(=O)CNC(=O)C34CC5CC(CC(C5)C3)C4)cc(=O)oc2c1,"inconclusive [activator, partial curve, poor fit]"
9,O=C(c1cc(S(=O)(=O)N2CCN(c3ccccc3)CC2)ccc1Cl)N1CCCCCCC1,"inconclusive [activator, single point]"
10,CC1(C)CC(=O)C=C(NCCO)C1,"inconclusive [activator, single point]"
11,Cc1ccnc2nc(C(=O)OCC(=O)NC3CCCC(C)C3C)nn12 (stereo not given),"inconclusive [activator, full curve, poor fit]"
12,CCCCNC1CCS(=O)(=O)C1 (stereo not given),"inconclusive [activator, partial curve, poor fit]"
13,CC(=O)c1sc(N/N=C/c2cccc(O)c2)nc1C,inactive
14,COc1ccc(F)c(CN2CCC(N3CCC(C(=O)N4CCOCC4)CC3)CC2)c1,inactive
15,O=C(c1cc(F)ccc1F)C1CCCN(C(=O)c2ccc(F)cc2Cl)C1 (stereo not given),"inconclusive [activator, full curve, poor fit]"
16,O=c1cc(N2CCc3ccccc3C2)[nH]c(=O)n1C1CCCCC1,"inconclusive [activator, full curve, poor fit]"
17,CCc1cc(SC#N)cc(C)c1N,"inconclusive [activator, partial curve, poor fit]"
18,Cc1ccc(-c2c[n+](CC(=O)Nc3nc(-c4ccc(F)cc4)cs3)c3n2CCC3)cc1,inactive
19,Cc1[nH]c2ccccc2c1SCC(=O)N1CCCCCC1,"inconclusive [activator, partial curve, poor fit]"
20,C/C(=N/NC(=O)c1cccs1)c1ccc(NC(=O)COc2ccc(Cl)cc2)cc1,active: 5.17 µM
21,CC(=NO)C1CCC2C3CCC4=CC(=NO)CCC4(C)C3C(=O)CC12C (stereo not given),"inconclusive [activator, single point]"
22,CN1CCN(C(=O)CCN2C(=O)/C(=C\c3ccc(F)cc3)SC2=S)CC1,"inconclusive [activator, partial curve, poor fit]"
23,Cc1nc2ncnn2c(N2CCN(C(c3ccccc3)c3ccccc3)CC2)c1C,"inconclusive [activator, single point]"
24,CCN(CC)CC(=O)Nc1cc(N(C)C)nc2ccccc12,"inconclusive [activator, full curve, poor fit]"

row,SMILES,Potency
1,CCN(CC)C(=O)CSc1ncnc2sccc12,inactive
2,CC(C)CNC(=O)c1cccc(NC(=O)CCc2ccccc2)c1,inactive
3,COc1ccc(C)cc1S(=O)(=O)n1c([N+](=O)[O-])cnc1C,inactive
4,CCOc1ccc(C(=O)/C=C/c2ccc(OC)c(OC)c2)cc1,"inconclusive [activator, single point]"
5,COc1ccc(/C=N/Nc2snc(SC)c2C#N)cc1OC,inactive
6,C=CCn1c(SCC(=O)NCC2CCCO2)nc2scc(-c3ccc(OC)cc3)c2c1=O (stereo not given),inactive
7,COc1ccccc1-c1cc(C(F)(F)F)n2ncc(C(=O)N3CCc4ccccc4C3)c2n1,"inconclusive [activator, partial curve, poor fit]"
8,O=C(c1ccc(Cl)cc1Cl)N1CCC(c2nc3c(nnn3Cc3ccco3)c(=O)[nH]2)CC1,"inconclusive [activator, partial curve, poor fit]"
9,Cc1cc(C=NCCCO)c(C)n1-c1cc(Cl)ccc1Cl,inactive
10,COC(=O)c1ccc(Cl)c(NS(=O)(=O)c2ccc3c(c2)OCCO3)c1,"inconclusive [activator, partial curve, poor fit]"
11,COc1cccc(C2=NOC(C(=O)Nc3cc(OC)c(OC)c(OC)c3)C2)c1 (stereo not given),"inconclusive [activator, full curve]"
12,COc1ccc(N=C(c2ccccc2)c2c(C)[nH]n(-c3ccccc3)c2=O)c(OC)c1,inactive
13,COc1ccc(C(=O)CC(=O)c2ccccc2)cc1,inactive
14,COc1ccccc1C(=O)N/C(=C/c1ccccc1)C(=O)Nc1ccc(C(=O)O)cc1,"inconclusive [activator, single point]"
15,CCOC(=O)/C(=C\c1cccc(O)c1)c1nc2sc(C)c(C)c2c(=O)[nH]1,active: 2.31 µM
16,c1coc(Cn2nnnc2CN2CCN(C3CCCCC3)CC2)c1,"inconclusive [activator, single point]"
17,Cc1ccc(C)c(OCC(O)CN2CCN(CCN3C(=O)c4cccc5cccc(c45)C3=O)CC2)c1 (stereo not given),"inconclusive [activator, single point]"
18,Cc1ccc2[nH]c(=O)c(CN(Cc3cccs3)Cc3nnnn3CC3CCCO3)cc2c1 (stereo not given),"inconclusive [activator, single point]"
19,CC1CCc2sc(C(=O)NCC(c3ccco3)N3CCCCC3)cc2C1 (stereo not given),"inconclusive [activator, single point]"
20,COc1ccc(Cl)cc1Nc1nc2ccc(C)cc2n2cnnc12,active: 8.2 µM
21,O=C(O)c1ccc(NC(=O)c2ccc(Cl)cc2)c(NC(=O)c2ccc(Cl)cc2)c1,"inconclusive [activator, single point]"
22,O=C(c1ccco1)N1CCN(c2ncnc3c2cnn3-c2ccccc2)CC1,"inconclusive [activator, partial curve, poor fit]"
23,Cc1nc2sc(C(=O)c3ccccc3)c(N)c2c2c1CCCC2,active: 14.6 µM
24,COc1ccc(CN(N=O)C2CC(=O)N(c3ccc(OC)cc3)C2=O)cc1 (stereo not given),inactive

row,SMILES,Potency
1,Cc1nc2sc(C(=O)Nc3ccccc3Cc3ccccc3)c(C)c2c(=O)[nH]1,active: 5.8 µM
2,O=C(COc1ccc(Br)cc1CNCCc1ccccc1)NCc1ccccc1,"inconclusive [activator, single point]"
3,CCc1cc2c(=O)c(-c3ccc4c(c3)OCCO4)c(C)oc2cc1OS(C)(=O)=O,"inconclusive [activator, single point]"
4,CN(Cc1ccccc1)C(=O)C1CCCN(Cc2cccc(Cl)c2)C1 (stereo not given),active: 0.291 µM
5,O=C(CCSc1nnc(-c2ccco2)o1)Nc1ccc(F)cc1,inactive
6,CCCOC1CCCN(C(=O)c2ccc(OC3CCN(C(=O)COC)CC3)cc2)C1 (stereo not given),"inconclusive [activator, partial curve, poor fit]"
7,CCCCCCCCC1=NCCc2c1[nH]c1ccccc21,active: 11.6 µM
8,COc1cc2[nH]c(O)c(C=O)c2cc1OC,inactive
9,O=S1(=O)CC(O)C(N=Nc2c(O)n(Cc3ccccc3)c3ccccc23)C1 (stereo not given),inactive
10,O=C(/C=C/c1ccccn1)c1cc(Cl)cc(Cl)c1O,active: 20.6 µM
11,C[C@@H](NC(=O)c1nc[nH]c1C(=O)N[C@@H](CCCCNC(=O)OC(C)(C)C)C(=O)OC(C)(C)C)c1ccccc1,"inconclusive [activator, single point]"
12,O=C(CCS(=O)(=O)Cc1ccccc1)N1CCN(Cc2ccccc2)CC1,active: 10.3 µM
13,CC(Oc1ccc2c(-c3ccccc3)cc(=O)oc2c1)C(=O)NCCN1CCOCC1 (stereo not given),"inconclusive [activator, single point]"
14,C=CCn1c(CSCc2ccc(Cl)cc2)nnc1SCC(=O)NCc1ccccc1,"inconclusive [activator, partial curve, poor fit]"
15,COc1ccc(Oc2cn[nH]c2-c2ccc(OC)cc2O)cc1,"inconclusive [activator, single point]"
16,O=C1c2ccccc2C(=O)c2c1ccc(C(=O)N1CCCCC1)c2NCCO,inactive
17,Cc1ccc2nc(N3CC(=O)Nc4ccccc43)nc(-c3ccccc3)c2c1,active: 3.26 µM
18,O=C(COC(=O)CC1CCCC1)Nc1cc2c(cc1Cl)C(=O)c1ccccc1C2=O,"inconclusive [activator, single point]"
19,COc1ccc([N+](=O)[O-])c(OC)c1C(=O)NC(=O)Nc1c(F)c(F)c(F)c(F)c1F,inactive
20,Cc1nnc(SC(C(=O)Nc2cc(Cl)cc(Cl)c2)c2ccccc2)[nH]c1=O (stereo not given),"inconclusive [activator, single point]"
21,CC(=O)N1CCN=C1SCc1ccc(Br)cc1,"inconclusive [activator, partial curve, poor fit]"
22,CCOC(=O)C1CCN(c2nc3c(C)cccn3c(=O)c2/C=C(\C#N)S(=O)(=O)c2ccccc2)CC1,inactive

# Reference: PubChem BioAssay AID624296 (National Center for Advancing Translational Sciences (NCATS), 2012)
